{"source": "the supplement of paper PMC11417369", "note": "± gives the standard deviation of the averaged measurements. The list shows a part of the results.", "data": [{"system": "PfAP2-I AP2 domain 3 (GST-tagged)", "experiment": "gcPBM binding intensity (ln(normalized median fluorescence intensity)); higher = stronger DNA binding", "how_it_was_run": "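Probes on an Agilent 4 × 180k array were primer-extended, double-stranded and 36 bp long, taken from intergenic genomic regions, with negative controls added. GST-tagged P. falciparum DNA-binding domains from E. coli, about 25 μg on average, were applied to the array for 1 h in 1× PBS containing 1% milk, 0.2 mg/ml BSA, 0.5% salmon testes DNA and 0.03% Triton X-100. Binding intensity, obtained after Alexa488 anti-GST antibody detection and a 488 nm scan, is the highest Masliner-normalised natural-log median intensity across replicate spots of either probe orientation.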", "values": [{"sequence": "TAGCTGTTCAAAAAATGTACATATATAATATATATA [XGTACX_site5842]", "gcPBM binding intensity (ln)": "8.28 ± 0.46"}, {"sequence": "ATATATATGCATTCAAGTACAAAAATATATGTTAAA [XGTACX_site910]", "gcPBM binding intensity (ln)": "7.83 ± 0.52"}, {"sequence": "AAATTAAAAATAATTACACACATAGAAAAATTATAT [CACACA_site2275]", "gcPBM binding intensity (ln)": "7.92 ± 0.26"}, {"sequence": "GTAATACACAGACACACACACATACACATATTTATA [CACACA_site7313]", "gcPBM binding intensity (ln)": "8.27 ± 0.53"}, {"sequence": "ATATAATAACATAACACACACATGTATTTATAGGTG [CACACA_site359]", "gcPBM binding intensity (ln)": "7.8 ± 0.45"}, {"sequence": "ACATTATAATATTATTGTACTATATATATAATATAT [XGTACX_site2291]", "gcPBM binding intensity (ln)": "7.67 ± 0.42"}, {"sequence": "GATAATCAGAATGGGGTGCAAAGAAAAAAAAAAAAA", "gcPBM binding intensity (ln)": "10.7 ± 0.46"}, {"sequence": "AAAAAAAAAAAAAAAACACACATATATATATAATAT [CACACA_site1159]", "gcPBM binding intensity (ln)": "8.59 ± 0.58"}, {"sequence": "AAAAAAAAAAAAAAAAGTACATGCCATATATTTTCA [XGTACX_site4580]", "gcPBM binding intensity (ln)": "8.64 ± 0.4"}, {"sequence": "GCTAGTTCATAAAATTGTACAAAAAAAAAAAAAAAA [XGTACX_site2223]", "gcPBM binding intensity (ln)": "8.12 ± 0.7"}, {"sequence": "AAATAATCTATACACAACGTATAAGAATAATATATG [TGCATGCA_negctrl_site422]", "gcPBM binding intensity (ln)": "7.56 ± 0.54"}, {"sequence": "AATAGAAACATTTTACATGTATATATAATTTTTTTT [XGTACX_negctrl_site190]", "gcPBM binding intensity (ln)": "7.31 ± 0.51"}, {"sequence": "TAAATAATGTTAAACACACATACCGATATATAATTA [CACACA_site2711]", "gcPBM binding intensity (ln)": "7.62 ± 0.37"}, {"sequence": "TATACAGACAGACACACACACATATATATATATATA [CACACA_site1734]", "gcPBM binding intensity (ln)": "9.27 ± 0.37"}, {"sequence": "TATATATAAGAAAAAAGTACAGATATATATATATTC [XGTACX_site4788]", "gcPBM binding intensity (ln)": "8.06 ± 0.49"}, {"sequence": "AAATTTTCACTTCAAAAACACACGTATTTTTTTCCT [CACACA_site3813]", "gcPBM binding intensity (ln)": "8.05 ± 0.73"}, {"sequence": "TGTTATATTATAACTACACACGTATTATGTTATATC [CACACA_site839]", "gcPBM binding intensity (ln)": "7.65 ± 0.62"}, {"sequence": "TTTTAAGAAAAAAAATGTACACATGAAAATAGTGAA [XGTACX_site5898]", "gcPBM binding intensity (ln)": "7.88 ± 0.45"}, {"sequence": "AATTGTTAATGGTACGAACACACATATAAAGATGCA [CACACA_site2043]", "gcPBM binding intensity (ln)": "7.84 ± 0.67"}, {"sequence": "AGAATTAAAATAATACGTACACACATGTATAATACA [XGTACX_site1878]", "gcPBM binding intensity (ln)": "7.9 ± 0.33"}, {"sequence": "ATTATATCTATAATATGTACATATTATAATATATAT [XGTACX_site3211]", "gcPBM binding intensity (ln)": "7.82 ± 0.32"}, {"sequence": "TGTACAATATAAGGAGCACACAAAAATGGATAAATA [CACACA_site8216]", "gcPBM binding intensity (ln)": "8.27 ± 0.58"}, {"sequence": "ACCTCTCATATGTTATAAACAAAATGAAAATTTCAT [XGTACX_negctrl_site303]", "gcPBM binding intensity (ln)": "8.12 ± 0.42"}, {"sequence": "ATTTTATTTTATTAAGTGCAAAAAAAAAAAAAGAAA", "gcPBM binding intensity (ln)": "10.2 ± 0.32"}, {"sequence": "ATATGGCATAAAACATGTACATGTTCATAAATATAT [XGTACX_site1924]", "gcPBM binding intensity (ln)": "7.96 ± 0.57"}, {"sequence": "GTGTGATGGTCCAATATACACACTTAAAAAAAAAAA [CACACA_site2426]", "gcPBM binding intensity (ln)": "8.02 ± 0.35"}, {"sequence": "TACTGTTATAAATGTGGTACTAATATTATACATATA [XGTACX_site5116]", "gcPBM binding intensity (ln)": "7.87 ± 0.32"}, {"sequence": "AATGGTCTTTTCAACACACGTACATAAAAATATTAT [CACACA_site2571]", "gcPBM binding intensity (ln)": "8.31 ± 0.33"}, {"sequence": "GTGGAATAATATATATGTACATATTTAAAATATTTA [XGTACX_site3499]", "gcPBM binding intensity (ln)": "8.05 ± 0.2"}, {"sequence": "ATTTTTTTACAAAAATGTACACATGAAATATGTAAT [XGTACX_site1372]", "gcPBM binding intensity (ln)": "7.8 ± 0.3"}, {"sequence": "TAAAAGTATATATATACACACATAAATATATCTGTA [CACACA_site4537]", "gcPBM binding intensity (ln)": "7.44 ± 0.28"}, {"sequence": "TGACAACATAGAGGGGCACACACATATATACATAAA [CACACA_site8550]", "gcPBM binding intensity (ln)": "8.25 ± 0.27"}, {"sequence": "TATTATTTTAGAATGCGTACTTATAAAATATTTTAT [XGTACX_site867]", "gcPBM binding intensity (ln)": "7.77 ± 0.38"}, {"sequence": "TTATATTAATAATAAAGTACAAAAAATCATATATAA [XGTACX_site799]", "gcPBM binding intensity (ln)": "7.7 ± 0.58"}, {"sequence": "TTATTGAACTTTTATAAAACCTGTATTATTATCTCT [CACACA_negctrl_site767]", "gcPBM binding intensity (ln)": "7.75 ± 0.69"}, {"sequence": "TATTTCTTATTACATACACACATATACATATATGAC [CACACA_site3201]", "gcPBM binding intensity (ln)": "7.99 ± 0.57"}, {"sequence": "TCCAGGCTACACTCTAGTACTCGTAGGGTTATGAGA [XGTACX_site4945]", "gcPBM binding intensity (ln)": "7.61 ± 0.52"}, {"sequence": "ATATATATATATATATGTACATATGTTAGGATCAAA [XGTACX_site8626]", "gcPBM binding intensity (ln)": "9.49 ± 0.43"}, {"sequence": "ATGACATATAAATATACACACATACGTAAGTATATT [CACACA_site5058]", "gcPBM binding intensity (ln)": "7.55 ± 0.4"}, {"sequence": "ACATAAGAATTTTTATGTACTCATAATATTTTATAT [XGTACX_site2398]", "gcPBM binding intensity (ln)": "7.71 ± 0.45"}, {"sequence": "TACATACTAAAAAAATGTACTTGTATTGTTTTTTTA [XGTACX_site8357]", "gcPBM binding intensity (ln)": "7.56 ± 0.41"}, {"sequence": "GAAATATTTGTAAAAACATGCATGGTACTTTTAAAA [TGCATGCA_site6]", "gcPBM binding intensity (ln)": "8.06 ± 0.39"}, {"sequence": "TATATATATATATACACATGCAAAAATTTTTAATTT [TGCATGCA_site82]", "gcPBM binding intensity (ln)": "9.47 ± 0.11"}, {"sequence": "TTTCTATATGGATTTGCACACATAAAAATGCTTATA [CACACA_site8751]", "gcPBM binding intensity (ln)": "9.075 ± 0.049"}, {"sequence": "TTATTTAACGTATTCTCACACATATATATATATAAT [CACACA_site5226]", "gcPBM binding intensity (ln)": "8.01 ± 0.51"}]}]}
